This is one part of the list.
Tested on: PfHDP1 homeodomain (GST-tagged)
Experiment: gcPBM binding intensity (ln(normalized median fluorescence intensity)); higher = stronger DNA binding
Method in brief: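 In this array assay, P. falciparum DNA-binding domains with a GST tag, expressed in E. coli, were applied for 1 h to primer-extended double-stranded 36-bp intergenic genomic probes and negative controls on an Agilent 4 × 180k array. Bound protein was visualised with Alexa488 anti-GST antibody at 488 nm. Binding intensity is the highest Masliner-normalised natural-log median intensity across replicate spots of either probe orientation.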

Compared with “CAAAATATTTAAAAAAGTACTTAAAATAAATTCAAA [XGTACX_site6866]”, “ACATATAAACTGTATACACACAAATATTGCATATAT [CACACA_site6804]” is higher in “gcPBM binding intensity (ln)” value: 5.97 for the first, 8.1 for the second.

Going from “ATATATCTATATGTGTGTACATATAAGTATTTATAT [XGTACX_site5333]” to “ATATATATAAATATATGTACTAATATATACATATAT [XGTACX_site2289]”, the “gcPBM binding intensity (ln)” value falls from 6.64 to 6.51.

Going from “TACATTCTAAATATTACACACTTTATAAAATAATAA [CACACA_site4069]” to “AGAAAAGAGAAATGGGCACACACACCCATATTATAT [CACACA_site8433]”, the “gcPBM binding intensity (ln)” value falls from 6.5 to 6.31.

Going from “AAGGTGGGAAAAAATAGTACACAACAAAAATGTATG [XGTACX_site8741]” to “CACAAAAAGAAACACACACACATATATATTTATTAT [CACACA_site3646]”, the “gcPBM binding intensity (ln)” value rises from 6.64 to 6.73.

Going from “TATATATATATTTATACACACATTAGTGTATACATG [CACACA_site2950]” to “AAATAAATGTTATGCATACACACTTTATACCTATTT [CACACA_site3779]”, the “gcPBM binding intensity (ln)” value falls from 8.57 to 7.

First: TCTTTTATGTTTGTTTTTCCCTTTTTTTATGTTCCC [CACACA_negctrl_site1722]
Second: ATATATATTAGGTATTGTACTTATATGCATATAAGT [XGTACX_site2700]
The “gcPBM binding intensity (ln)” value of the first is lower: 6.6 for the first, 6.74 for the second.

First: AATGAATGAATTATTTTGCGCTTATTATAGGACGAA [XGTACX_negctrl_site218]
Second: AAAAACTATTGTAGGACACACAAAATTCCAATTTTA [CACACA_site1701]
The “gcPBM binding intensity (ln)” value of the first is higher: 6.77 for the first, 6.26 for the second.

Compared with “ATATATATAAAACACACACACACATGTTTTAAAACT [CACACA_site78]”, “AAGTAATTTATGCATACACACATATATAAATATGTA [CACACA_site7813]” is lower in “gcPBM binding intensity (ln)” value: 7.01 for the first, 6.91 for the second.

Compared with “TATATATATATATACACACACACCGTCCGTGTTAAA [CACACA_site2979]”, ATATATTAAAACCTAGTGCATTTGTACATATTTCAA is lower in “gcPBM binding intensity (ln)” value: 9.32 for the first, 8.12 for the second.

First: TTATACAGGACAATAGTGCACATAAATATATGTATA
Second: GCAGTCAAAAAGGAAAATATAAAAAAAGTATATGTG [GTGCAC_negctrl_site95]
The “gcPBM binding intensity (ln)” value of the first is higher: 10 for the first, 6.18 for the second.

Going from “AGGTTAAAACATATATATATATATATATATATATAT [XGTACX_negctrl_site333]” to “TTTTTTTATTATTAAAGTACTAAAAAATGAAAACTG [XGTACX_site6758]”, the “gcPBM binding intensity (ln)” value falls from 9.27 to 6.33.

Going from “TGGGAATAAAAACACACACACACACCGATATATATA [CACACA_site5875]” to “TATAATAAAAAATGTACACACATAAGAAAATTTAAT [CACACA_site2901]”, the “gcPBM binding intensity (ln)” value falls from 6.93 to 6.73.

First: ACATAATAAAAAAAACGTACAAATAGGTTTTTCATA [XGTACX_site6645]
Second: GACTATTTTAATATTTTACACACCATGTAAAATATA [CACACA_site9050]
The “gcPBM binding intensity (ln)” value of the first is lower: 6.1 for the first, 6.75 for the second.

First: ATTTTTTAAAATATTTGTACATATATAATGCATATA [XGTACX_site7026]
Second: CACAGACACGGACACACACACACACCGATATATATA [CACACA_site4353]
The “gcPBM binding intensity (ln)” value of the first is lower: 6.95 for the first, 6.99 for the second.

First: TAAATACTTATATGTACACACATATAGATATATATT [CACACA_site2553]
Second: ATATAAATAAATGTATGTACATATATTTATATGCAT [XGTACX_site4185]
The “gcPBM binding intensity (ln)” value of the first is lower: 6.34 for the first, 6.37 for the second.

Going from “ATCTGTACAGTTTTTGCACACATATAAATAAAAAAA [CACACA_site9198]” to “TATTTACAAATAAAAAGTACATAAACTAATATCTTT [XGTACX_site2181]”, the “gcPBM binding intensity (ln)” value falls from 10.7 to 5.89.

Compared with “TATATTAGAAAGGATACACACATATATAAATATCTA [CACACA_site6411]”, “TTGTTTGTAAACAGATGTACATATAAAAATATATAT [XGTACX_site3370]” is higher in “gcPBM binding intensity (ln)” value: 6.15 for the first, 6.48 for the second.

Compared with “ATATATATATATATATGTACATATATTTGTAATGTC [XGTACX_site8074]”, “TTTATTATGTAAGCATGTACATGATGTATATATTTA [XGTACX_site5021]” is lower in “gcPBM binding intensity (ln)” value: 9.2 for the first, 6.68 for the second.

First: TCAGATCCATAGAAGGTGCAAATAACAAAAATACAA [GTGCAC_site9610]
Second: TAATTTTTCTTATATAGTACACAAAAAGAAAATTAC [XGTACX_site6393]
The “gcPBM binding intensity (ln)” value of the first is higher: 9.59 for the first, 6.57 for the second.

First: TATGAACACCCAAATACACACACTCAAAAAAAAAAA [CACACA_site5466]
Second: AAAATGTTTTTATCCAGTACATAAATATATATATAT [XGTACX_site7398]
The “gcPBM binding intensity (ln)” value of the first is lower: 6.42 for the first, 8.6 for the second.

Compared with “GAAAAATTGAATTTGGGTACATATAAATATTATATT [XGTACX_site2363]”, “ATAAATATTAGCAGTTGTACAATAAATATATGTAAT [XGTACX_site2534]” is higher in “gcPBM binding intensity (ln)” value: 6.13 for the first, 6.86 for the second.

Compared with TTCCCTATATAGAGCATGCACTATATTCAAATGATG, “TTAGATATAAAAGCATGTACTTGTATAAAATATATA [XGTACX_site8272]” is lower in “gcPBM binding intensity (ln)” value: 8.54 for the first, 6.14 for the second.

Compared with “TTATCAAATGAGTGTTGTACGTCTTTTGAAATACCA [XGTACX_site8804]”, “AAGGCAAACAAACACACACACATATATACATATATA [CACACA_site2122]” is higher in “gcPBM binding intensity (ln)” value: 6.04 for the first, 6.79 for the second.

Compared with “TTTATACAAACAACTTTATATTAATGTTTAACGGAG [GTGCAC_negctrl_site396]”, “TCTTTCTAAAGATGTAGTACAAAATAAATATAATAT [XGTACX_site6564]” is higher in “gcPBM binding intensity (ln)” value: 6.29 for the first, 6.87 for the second.

Compared with “TAATATGCTCATGTAACACACATTTGCATATTTTTC [CACACA_site1357]”, “TTATCACACCTTTTTTGTACGAAATAAAAAAAAAAA [XGTACX_site5564]” is lower in “gcPBM binding intensity (ln)” value: 9.63 for the first, 6.08 for the second.

Compared with “GTGCAAAATATTTTTACACACAAATTCTTACAACAG [CACACA_site7556]”, “ATATCTATGTTTATCTCGAATAACTTAAAAAATTAT [CACACA_negctrl_site1131]” is lower in “gcPBM binding intensity (ln)” value: 7.77 for the first, 6.4 for the second.

First: TAGAACAAATAAAACACACACATATAAATATAGATG [CACACA_site7325]
Second: GATATTATGTGTTTGGTATTTTTTGATGTTGGTAGG [XGTACX_negctrl_site563]
The “gcPBM binding intensity (ln)” value of the first is lower: 6.52 for the first, 6.81 for the second.

Compared with “GTATTACAACGACACACACACCTATATATCATAGTA [CACACA_site7877]”, “ACATTAAAAAAAAAATGTACATAAATATTTTTCCTT [XGTACX_site4361]” is lower in “gcPBM binding intensity (ln)” value: 6.99 for the first, 6.25 for the second.

In the case of “AATTTTATTCATTGAGCACACAAAATAAATTATCAA [CACACA_site9079]”, the “gcPBM binding intensity (ln)” value is reported as 6.73.

— the supplement of paper PMC11417369
